Data taken from PubChem BioAssay AID1347071 (National Center for Advancing Translational Sciences (NCATS), 2019).
In all, about 410,000 compounds went through this assay and about 260 (0.063%) were called active. Inconclusive means that the source gave no clear call. Such entries were picked first, then a sample of the others. Calls come from the whole dose curve; as a rule, active = well fitted activation curve with a large enough effect; inconclusive = small, poorly fitted or top-dose-only effect; inactive = no such curve, though single readings can be large or run the other way. Potencies of inconclusive entries are left out as doubtful fits.

Test: qHTS for compounds that reverse cellular toxicity of Amyloid beta (A-beta) peptide in yeast: Primary Screen; note: nearly all actives have a fitted effect of over 55% in size
Conditions: yeast expressing A-beta42, growth rescue, OD600, 48 h; growth rescue: at 46.1 µM (top of the series), 0% DMSO, 100% iron-clioquinol control
Source text: The A-beta peptide is produced by the processing of the amyloid precursor protein (APP) by two proteases, beta and gamma secretases. […] A-beta42 is regarded as the most amyloidogenic form due to its hydrophobicity; however, precisely how A-beta42 induces neurotoxicity is unclear. To understand further this biology and its potential therapeutic implications for human neurodegenerative disease, a quantitative high-throughput screen for compounds that reverse the cellular toxicity of the A-beta peptide was developed. A yeast based screen was used because it recapitulates the salient feature of protein mis-folding disorder accurately. This cell-based phenotypic screen provides a significant, unbiased advantage by letting the compounds and models inform us which proteins or pathways are most relevant. The ideal chemical candidates would therefore have activity in both our primary yeast and secondary neuronal toxicity assays, as well as in mouse models. They will be valuable tools for dissecting diverse protein homeostasis pathologies and could potentially become the focus for future pre-clinical development. For this luminescence assay, inhibition of A-beta rescues the toxic effect in the yeast cell, resulting in increase of signals and the desired phenotype of "Activator". This screen is run against the Molecular Libraries Small Molecule Repository (MLSMR) and the NCGC Sytravon Library Collection.
NIH Chemical Genomics Center [NCGC]
NIH Molecular Libraries Probe Centers Network [MLPCN]
Assay Submitter (PI): Susan Lindquist, Whitehead Institute, Massachusetts Institute of Technology
[1] Vassar R,et al (1999). Beta-secretase cleavage of Alzheimer's amyloid precursor protein by the transmembrane aspartic protease BACE. Science. 286: 735-741.
[2] Yan R, et al (1999). Membrane-anchored aspartyl protease with Alzheimer's disease beta-secretase activity. Nature. 402: 533-536.
Two and a half microliter / well of yeast growth medium were dispensed in a 1536 assay plate. Compounds were pinned using the Kalypsys robotic system followed by addition of 2.5 uL / well yeast solution. The assay plates were incubated at 30 C. After 48 hr, the absorbance signal at 600 nm was obtained using the PerkinElmer ViewLux plate reader to assess yeast growth. The data was normalized to the positive control of an equimolar mixture of ferric chloride (FeCl3) and clioquinol and to the negative control DMSO.
Potency is the fitted concentration of half-maximal effect; tags give direction and shape of the fitted curve.

| Compound | Potency | growth rescue |
| --- | --- | --- |
| COc1ccc(/C(C)=N/NC(=S)NCCc2ccccc2)c(O)c1 | inconclusive [activator, full curve, poor fit] | – |
| CCc1ccccc1NC(=O)Cn1c(=O)n(-c2ccc(CC(=O)NCC3CCCO3)cc2)c(=O)c2ccccc21 (stereo not given) | inconclusive [activator, partial curve, poor fit] | – |
| CCN(CC)S(=O)(=O)c1ccc(Cl)c(NC(=O)COC(=O)C2CCCCC2)c1 | active: 11.2 µM | – |
| Fc1ccc(N/N=C/c2ccncc2)c(F)c1 | – | inactive: -3.84% |
| CC(C)(C)C(=O)Nc1nnc(COc2ccc(Cl)cc2)s1 | inconclusive [activator, single point] | – |
| Cc1cc(C)nc(NC(N)=NCCc2c[nH]c3ccccc23)n1 | – | inactive: 1.94% |
| O=C(CSCc1cccc(Cl)c1)NCc1ccc2c(c1)OCO2 | inconclusive [activator, single point] | – |
| CCC(=O)Nc1c(C(=O)N2CCCCCC2)cnn1-c1ccc(C)c(C)c1 | inconclusive [activator, partial curve, poor fit] | – |
| CC(=O)c1ccc(NC(=S)N(Cc2ccccc2)C(C)C2CC2)cc1 (stereo not given) | inconclusive [activator, partial curve, poor fit] | – |
| COCCn1c(C23CC4CC(CC(C4)C2)C3)n[nH]c1=S | inconclusive [activator, partial curve] | – |
| COC(=O)c1ccc(CSc2nnc3ccc4ccccc4n23)cc1 | – | inactive: -7.88% |
| Cc1nn(-c2ccccc2)cc1C(=S)Nc1ccccc1 | inconclusive [activator, partial curve, poor fit] | – |
| Cc1ccc(SCCC(=O)NCCSCc2ccccc2C)cc1 | inconclusive [activator, single point] | – |
| CCCc1ccc2oc(C(=O)N3CCN(c4cnccn4)CC3)c(C)c2c1 | inconclusive [activator, partial curve, poor fit] | – |
| CCOC(=O)N1CCC(NC(=O)c2cc3sccc3n2CC)CC1 | inconclusive [activator, partial curve, poor fit] | – |
| COC(=O)c1sc(NC(=O)/C=C/c2ccc(OC)c(OC)c2)c(C(=O)OC)c1C | – | inactive: 5.22% |
| CC(=O)c1c(O)c2ccccc2n(C)c1=O | – | inactive: -53.2% |
| Nc1nc2ccc(O)cc2s1 | – | inactive: 10.9% |
| O=C(NNc1nc2ccccc2s1)c1ccc(F)cc1 | – | inactive: -6.31% |
| FC(F)(F)c1cc(Nc2ccccc2)nc(-c2ccccn2)n1 | inconclusive [activator, partial curve, poor fit] | – |
